This is one part of the list. At the low end of the ranking the order means little.

In this experiment the target is SIX1 homeodomain (reference allele) (UniProt Q15475). Description: universal protein binding microarray. The conditions noted are these: Universal all-10-mer PBM (8x60K, AMADID 030236), 300 nM GST-tagged protein, Alexa Fluor 488 anti-GST; buffer, salt, pH and temperature not stated; high values mean tight binding; most listed sequences are background and not binding sites; double strand, one strand shown.
Regarding ACCTCACG, the binding signal was -0.0851 E-score.
The value for AGCGTACC was -0.0396 E-score.
Take CCATATAA: the binding signal was found to be 0.155 E-score.
The value for CCCCAGAG was -0.0759 E-score; that for TCAGTAAA was -0.143 E-score.
The value for AGGAGGTA was 0.101 E-score; that for ACTTACTC was -0.00524 E-score.
With ACGAGGAG, the binding signal was -0.111 E-score.
The value for CACCCACG was 0.0735 E-score; that for CGATCGTA was 0.212 E-score; that for CGTAAACA was -0.107 E-score.
The value for CCTACATC was 0.00996 E-score; that for ACTGCGCA was -0.216 E-score.
As to ATCAGACC, the binding signal was 0.201 E-score.
In the case of AGAATGGA it was 0.0605 E-score; in that of GACTTCGC, -0.0934 E-score; in that of CACGAACC, -0.0908 E-score.
CGCGCGGC: the binding signal was -0.0795 E-score.
In the case of CAGCGTGC it was -0.125 E-score; in that of ACTCGGTG, 0.0772 E-score.
In the case of CTCCGAAA it was -0.0788 E-score; in that of GAATGCTC, -0.166 E-score; in that of CCACACAG, -0.0725 E-score.
The value for AATCTAGG was 0.0649 E-score.
On to ATACTCAC, for which the binding signal came out at 0.273 E-score.
Consider AATAACAA, for which the binding signal was -0.182 E-score.
In the case of ACATGTCA it was -0.192 E-score; in that of TCATGAGA, 0.118 E-score.
Take ACAGCAAT: the binding signal was 0.041 E-score.
In the case of CGCGGTCA it was -0.0862 E-score.
The value for GTACTTCA was -0.175 E-score; that for TCGTGACA was 0.207 E-score.
As to ATCTTCTG, the binding signal came to 0.0591 E-score.
In the case of ACGCCGCT it was -0.161 E-score.
The value for GGTCATTA was 0.00232 E-score.
On to CAACTATG, for which the binding signal was -0.172 E-score.
As for GTCTCCTA, the binding signal was found to be 0.0467 E-score.
In the case of CTATGAAC it was -0.193 E-score; in that of CGGACTTA, -0.0961 E-score; in that of ACTACAGC, -0.122 E-score.
In the case of ACTGCTCA it was -0.0582 E-score.
Consider CTGACGTA, for which the binding signal was -0.193 E-score.
In the case of CGTTCCGC it was -0.138 E-score; in that of CTACGCAG, -0.0649 E-score; in that of ACGGAATG, -0.0944 E-score.
With AAGTCTAC, the binding signal was -0.0463 E-score.
The value for GGCATGTA was 0.101 E-score; that for CTTTTCCA was -0.28 E-score; that for CGGGTGGC was -0.218 E-score.
Regarding AGGTTAAG, the binding signal was -0.132 E-score.
On to CATCCCGA, for which the binding signal turned out to be 0.175 E-score.
For the sequence ATGCGATA, the binding signal was 0.394 E-score.
Turning to CTTGTAGC, the binding signal is -0.00035 E-score.
As to AAAGGGGA, the binding signal came out at 0.0726 E-score.
Regarding CCTCCGAG, the binding signal was found to be 0.0475 E-score.
The value for GTGTCAAA was 0.311 E-score.
In the case of GCATACGC it was -0.0429 E-score; in that of CAGGTAAA, -0.00592 E-score; in that of AATCGAGA, 0.0539 E-score.
Turning to CGCGCAGC, the binding signal was -0.0973 E-score.
The value for ACTGTATC was 0.367 E-score.
For AAGCTCTC, the binding signal is -0.133 E-score.
For GCAGGGAA, the binding signal was -0.215 E-score.
The value for ACTACTAA was -0.116 E-score; that for CTTGATTC was -0.106 E-score.
Consider CATTCGGC, for which the binding signal is -0.0679 E-score.
With AACACTCC, the binding signal was -0.232 E-score.
Consider ACTCTGAT, for which the binding signal was determined as 0.145 E-score.
The value for CGCTTCAC was -0.0834 E-score; that for CGCTAATC was 0.109 E-score.
The value for CTATTGCA was -0.0653 E-score.
The value for CATCTCCA was 0.118 E-score.
With CTTAGCGC, the binding signal is -0.101 E-score.
The value for GCTATACA was 0.229 E-score; that for ACTCTGGC was -0.197 E-score; that for AACTAGAG was -0.0698 E-score.
In the case of CGCGCATA it was 0.0263 E-score.
On to CAGTGGGA, for which the binding signal came out at 0.112 E-score.
CTATGCAC: the binding signal was -0.00016 E-score.
The value for AAACCAGG was 0.0296 E-score; that for CCAGAAAC was 0.0403 E-score.
The value for CCGCTCGC was -0.0777 E-score; that for GAAGGACC was -0.25 E-score.
The value for CATCTGCA was -0.0137 E-score; that for CTAGTTCC was 0.041 E-score; that for AAAGAATG was -0.104 E-score.
For the sequence CGGCAGAG, the binding signal is -0.113 E-score.
The value for AAGAGTTA was 0.0162 E-score; that for CACGCCTC was -0.183 E-score; that for ACTCAAGG was -0.119 E-score.
The value for AACTAGTT was -0.339 E-score; that for GACATCGA was -0.0421 E-score; that for ATGGATTA was 0.248 E-score.
For the sequence CCGGGGAG, the binding signal came out at 0.0117 E-score.
In the case of ACTGAATG it was -0.158 E-score; in that of ATATAGGG, 0.229 E-score.
In the case of GTTTCGCA it was -0.172 E-score; in that of ATCTAAGC, 0.0524 E-score.
The value for GGATACTA was 0.371 E-score; that for GGCTTCCA was -0.222 E-score; that for GGTCTAAA was 0.0226 E-score.
Take GTTTGAAA: the binding signal is -0.0153 E-score.
The value for AACGTCAA was -0.318 E-score; that for ATCCCTAC was 0.307 E-score.
On to GTGTTGCA, for which the binding signal was -0.0979 E-score.
As for GCCGTTGA, the binding signal was -0.208 E-score.
For ACGGGAAT, the binding signal was determined as 0.0958 E-score.
Regarding CCCTTCGC, the binding signal is -0.13 E-score.
On to AAATCGCA, for which the binding signal is -0.057 E-score.
The value for GGGCTGAA was -0.189 E-score; that for AGTTAGAT was 0.145 E-score; that for GGAGCTAC was -0.222 E-score.
The value for AAAAGAAA was -0.232 E-score.
As to ACGCCGAA, the binding signal is -0.102 E-score.
Take CTGAACTC: the binding signal was -0.195 E-score.
The value for ATGTGTAC was -0.0115 E-score; that for CGTGTGAA was -0.0949 E-score.
On to AGGGCAGG, for which the binding signal is -0.0712 E-score.
In the case of GCAAAGTA it was 0.0938 E-score; in that of CGAGTAGC, -0.0584 E-score.
Take ACCGGCCA: the binding signal is -0.0817 E-score.
In the case of CTCTAATA it was 0.115 E-score.
For the sequence CTCCGATC, the binding signal came out at 0.185 E-score.
The value for CCATCAAC was -0.0896 E-score; that for GGCAAGGA was 2e-05 E-score.
In the case of CTCGGGTC it was 0.0904 E-score; in that of AGTAATGC, -0.162 E-score.
For AGCAACCG, the binding signal is -0.178 E-score.
The value for TAGGTCCA was -0.0626 E-score.
As to TGTCCTAA, the binding signal is -0.0502 E-score.
With AGATTCAC, the binding signal is -0.0796 E-score.
With AAAGCGCG, the binding signal is -0.213 E-score.
In the case of GAGATGAA it was 0.143 E-score.
In the case of ATCCCATA, the binding signal is 0.351 E-score.
The value for CCCCTGGA was 0.0189 E-score; that for CACCATGA was 0.0982 E-score; that for TAGGAGGA was 0.0767 E-score.
In the case of AACCACTC it was -0.0169 E-score.
In the case of TAGACGCA it was 0.0362 E-score.
Regarding ATCGTGTC, the binding signal came to 0.274 E-score.
In the case of ACGCTCCC it was -0.188 E-score.
In the case of GCGTCGGA it was 0.00554 E-score; in that of AAAACATG, -0.129 E-score.
In the case of ATAATCGC it was 0.0557 E-score; in that of AGATAAAT, 0.081 E-score; in that of AAATCCTC, -0.133 E-score.
As for GACCTGAA, the binding signal was -0.216 E-score.
In the case of CGACTTTA it was -0.309 E-score; in that of TACCTTCA, 0.135 E-score; in that of AACGTCAC, -0.227 E-score.
The value for CGTAATCA was 0.0167 E-score; that for AGATAGGA was 0.175 E-score; that for CGCGCTTA was -0.101 E-score.
Take CTAGTGTA: the binding signal was 0.189 E-score.
Regarding GTAGTGGA, the binding signal was 0.034 E-score.
In the case of CGGAACGA it was 0.028 E-score; in that of ATAGGAGA, 0.185 E-score; in that of GCCCTCCA, -0.179 E-score.
Turning to CAGTCTGC, the binding signal was -0.195 E-score.
On to AGGGGTGG, for which the binding signal came out at 0.125 E-score.
With GGTTGGTA, the binding signal stood at 0.0294 E-score.
Consider CTACTCAC, for which the binding signal came to 0.106 E-score.
The value for GAGTGGAC was -0.197 E-score; that for ACGCTTAC was -0.131 E-score; that for GGCAAGTA was 0.0265 E-score.
For CCAAGAGA, the binding signal came out at 0.0348 E-score.
Regarding CTGGGTTA, the binding signal is -0.0228 E-score.
With CTGTGCCA, the binding signal is -0.094 E-score.
For CTTCCTGA, the binding signal is -0.0401 E-score.
The value for GTGTGGTA was 0.104 E-score; that for GGGTACCC was 0.136 E-score; that for AGAGCGAG was -0.0295 E-score.

The values are drawn from publication PMC10668032.
